The text below walks through data of ChEMBL document CHEMBL1275443, “Functional diversity among metallo-beta-lactamases: characterization of the CAR-1 enzyme of Erwinia carotovora” (2008).

What all share (conditions): Fluoribacter gormanii
Substrate in series [1]: CC1(C)S[C@@H]2[C@H](NC(=O)[C@H](C(=O)O)c3ccsc3)C(=O)N2[C@H]1C(=O)O
Kind of series: (§1) Ratio of Kcat to Km for Legionella gormanii ATCC 33297T beta-Lactamase FEZ-1.

Substrate in series [2]: CO/N=C(\C(=O)N[C@@H]1C(=O)N2C(C(=O)[O-])=C(C[N+]3(C)CCCC3)CS[C@H]12)c1csc(N)n1
The series is described as §1.

Substrate in series [3]: CC(=O)OCC1=C(C(=O)O)N2C(=O)[C@@H](NC(=O)Cc3cccs3)[C@H]2SC1
Described as §1.

Substrate in series [4]: CO[C@@]1(NC(=O)C(C(=O)O)c2ccsc2)C(=O)N2[C@@H](C(=O)O)C(C)(C)S[C@@H]21
The series is described as §1.

Substrate in series [5]: CO/N=C(\C(=O)N[C@@H]1C(=O)N2C(C(=O)O)=C(COC(N)=O)CS[C@H]12)c1ccco1
Described as §1.

Substrate in series [6]: CC1(C)S[C@@H]2[C@H](NC(=O)Cc3ccccc3)C(=O)N2[C@H]1C(=O)O
Described as §1.

Substrate in series [7]: CO/N=C(\C(=O)N[C@@H]1C(=O)N2C(C(=O)O)=C(COC(C)=O)CS[C@H]12)c1csc(N)n1
The description is as §1.

Substrate in series [8]: CC(C)(O/N=C(\C(=O)N[C@@H]1C(=O)N2C(C(=O)[O-])=C(C[n+]3ccccc3)CS[C@H]12)c1csc(N)n1)C(=O)O
The series is described as §1.

Substrate in series [9]: CC1(C)S[C@@H]2[C@H](NC(=O)[C@H](N)c3ccccc3)C(=O)N2[C@H]1C(=O)O
The description is as §1.

Substrate in series [10]: CO[C@@]1(NC(=O)Cc2cccs2)C(=O)N2C(C(=O)O)=C(COC(N)=O)CS[C@@H]21
Described as §1.

Substrate in series [11]: CCN1CCN(C(=O)N[C@@H](C(=O)N[C@@H]2C(=O)N3[C@@H]2SC(C)(C)[C@@H]3C(=O)O)c2ccccc2)C(=O)C1=O
The series is described as §1.

B1: FEZ-1 protein (Fluoribacter gormanii), Q9K578 (protein)
chain: MKKVLSLTALMMVLNHSSFAYPMPNPFPPFRIAGNLYYVGTDDLASYLIVTPRGNILINSDLEANVPMIKASIKKLGFKFSDTKILLISHAHFDHAAGSELIKQQTKAKYMVMDEDVSVILSGGKSDFHYANDSSTYFTQSTVDKVLHDGERVELGGTVLTAHLTPGHTRGCTTWTMKLKDHGKQYQAVIIGSIGVNPGYKLVDNITYPKIAEDYKHSIKVLESMRCDIFLGSHAGMFDLKNKYVLLQKGQNNPFVDPTGCKNYIEQKANDFYTELKKQETA
Take B1: the kcat/Km amounted to 1.3 ×10⁴ /M/s in [1]; 6 ×10³ /M/s in [2]; 2.5 ×10⁶ /M/s in series [3]; 1.3 ×10⁴ /M/s in series [4]; 6.6 ×10⁶ /M/s in series [5]; 1.1 ×10⁵ /M/s in series [6]. Also, the kcat/Km in series [7] turned out to be 2.4 ×10⁶ /M/s; in series [8], 4 ×10³ /M/s; in series [9] it was 1.1 ×10⁴ /M/s; in series [10] it was 2.7 ×10⁵ /M/s; in series [11], 1.2 ×10⁴ /M/s.
